Assay results: PubChem BioAssay AID1656 (Sanford-Burnham Center for Chemical Genomics, 2009)
The whole screen tested about 240,000 compounds, of which about 950 (0.4%) were called active. The shares of active, inactive and inconclusive entries below differ from those in the screen.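 The calls were made as follows: active = lipid droplet intensity inhibited by at least 50%, with more than 500 cells counted; inconclusive = wells with under 300 cells, treated as cytotoxic; inactive = the rest.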

test: inhibitors of hepatocyte lipid droplet formation, primary screen, imaging, high-throughput imaging, BODIPY stain (AID 1656); details: AML12 mouse hepatocytes, oleate lipid droplets, at 6.5 µM, stronger effect = higher value
In short: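 Assay system: AML12 mouse liver cells | Compound dosing: One dose, 6.5 µM compound | Read-out basis: Droplet intensity reduction, % inhibition | Measured by: Fluorescence imaging, 20x objective, two fields per well | Schedule: Overnight treatment with compound plus oleate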

SMILES	inhibition
CCOc1ccc(OCc2ccc(C(=O)N/N=C(\C)c3ccccn3)cc2)cc1	inconclusive: -174%
O=C(O)COc1ccc2occ(C(=O)c3ccccc3)c2c1	inactive: 1.6%
COc1cc(C2C=C(c3cccs3)Nc3ncnn32)cc(OC)c1OC (stereo not drawn)	inconclusive: -285%
COc1ccc(C(=O)OC(C)C(=O)NC(C)CCc2ccccc2)cc1OC (stereo not drawn)	active: 103%
CCOc1ccccc1NC(=O)CCCNC(=O)Cn1cnc2sc(C)c(C)c2c1=O	active: 58.7%
COc1ccc(Br)cc1CNC(=O)CCCc1cn(C)c2ccccc12	active: 70.3%
CCOc1ccc(N(CC)C(=O)COc2cc(=O)n(C)c3ccccc23)cc1	inconclusive: 118%
Cc1ccc(/C=C/C(=O)NN2CCN(C)CC2)cc1	inactive: -0.8%
Cc1ccc(NC2=C/C(=N\S(=O)(=O)c3cccs3)c3ccccc3C2=O)c(C)c1	inconclusive: 48.5%
Cc1ccc(CN2CCc3c(OCC(=O)Nc4cc(C)ccc4C)cccc3C2=O)cc1	inconclusive: 10.9%
CC(C)Cc1cc(C(C)(C)C)ccc1OC(=S)N(C)C	inactive: -4.4%
CCN(CC)CCNC(=O)c1cc2c(=O)n(C)c3ccccc3c2s1	inactive: -4.2%
COc1cc(C(=O)N/N=C/c2sccc2C)cc(OC)c1OC	inconclusive: -158%
O=C(NN=C1CCCCCCCCCCC1)c1ccccc1F	inactive: -4.5%
CCc1cccc(NC(=O)CCCn2nc(CC)n3c(cc4occc43)c2=O)c1	active: 52.8%
Cn1cccc1-c1cc(C(=O)N/N=C/c2ccc(F)cc2)[nH]n1	inconclusive: -177%
CCc1nnc(NC(=O)c2ccc(COc3cccc(C)c3)o2)s1	inconclusive: 40%
COc1ccccc1NC(=O)N1CCC(c2nc3cc(C)c(C)cc3[nH]2)CC1	inconclusive: -156%
OC1(Cc2cc(-c3ccccc3)no2)CCN(CCCc2ccccc2)CC1	inactive: 12.6%
Cn1c(=O)n(CC(=O)O)c(=O)c2c1nc1n2CCS1	inconclusive: 110%

SMILES	inhibition
CCCc1noc2c1/C(=N\O)CC(CC(C)SCC)C2 (stereo not drawn)	inconclusive: 115%
COc1ccccc1-c1nnc(Nc2nc3c(OC)cccc3s2)o1	inconclusive: -204%
CN(C)S(=O)(=O)c1ccc(C(=O)NCC2CC2(Cl)Cl)cc1 (stereo not drawn)	inconclusive: -94.4%
CCN(CC)CCN(C(=O)c1ccc(S(=O)(=O)N2CCOCC2)cc1)c1nc2cc3c(cc2s1)OCCO3	inconclusive: 114%
O=C(CSCC(=O)N1CCCc2ccccc21)Nc1nc(-c2ccccc2)cs1	active: 69%
Cc1cccc(C(=O)N[C@H](C(=O)Nc2nc3ccccc3[nH]2)C(C)C)c1	inconclusive: -122%
O=C(CSC1=NC2(CCCCCC2)N=C1c1ccccc1)Nc1ccc2c(c1)OCCO2	active: 58.6%
Nn1c(SCC(=O)Nc2nc3ccccc3s2)nncc1=O	inconclusive: -49.9%
CCOc1cc(N2CCOCC2)c(OCC)cc1NC(=O)COC(=O)c1cc2ccccc2cc1O	inactive: -0.9%
Cc1c(NC(=S)SCc2ccccc2)c(=O)n(-c2ccccc2)n1C	inactive: -1.5%
Cc1sc(NC(=S)NC(=O)CCc2ccccc2)c(C(N)=O)c1C	inconclusive: -205%
Cc1ccc(NC(=S)N/N=C/c2c(Cl)cccc2Cl)c(C)c1	inconclusive: -96.6%
CCOC(=O)c1[nH]c2c(c1C)C(=O)CC(c1ccco1)C2 (stereo not drawn)	inconclusive: -130%
CCOC(=O)C(C)Oc1cccc2c(=O)n(CC(=O)NCc3ccco3)ccc12 (stereo not drawn)	inconclusive: -334%
COc1cc(C(=O)N/N=C/c2cc([N+](=O)[O-])cs2)cc(OC)c1OC	inconclusive: -284%
COc1ccc(OCc2cc(C(=O)NC(C)Cn3cncn3)no2)c(Cl)c1 (stereo not drawn)	inactive: 4.4%
Cc1cc(C)cc(NC(=O)CSc2nc3[nH]ncc3c(=O)[nH]2)c1	inconclusive: 25%
COc1ccccc1CC(=O)Nc1ccc(OC)c(OC)c1	inactive: 1.6%
CC(=O)Nc1c(C)ccc(CNC(=O)COc2cc(C)ccc2C)c1C	inactive: -6.8%
CN(C)S(=O)(=O)c1ccc(C(=O)Nc2nnc(SCc3cccc4ccccc34)s2)cc1	inconclusive: -39.2%

SMILES	inhibition
Cc1cccc(N(C)S(=O)(=O)c2ccc(-c3cnc(C4CC4)o3)cc2)c1	inconclusive: -320%
Cc1cc(C(=O)N2CCCC(N3CCN(c4ccccc4C)CC3)C2)n(C)n1 (stereo not drawn)	inactive: -1.1%
CCOC(=O)c1ccc(NC(=O)C2CCN(C(=O)c3ccc(OC)c(OC)c3)CC2)cc1	inactive: -5.1%
O=C(Nc1ccc(-n2ccc(C(F)(F)F)n2)cc1)Nc1cccc(Cl)c1	inconclusive: 138%
CCC(NC(=O)c1cc(COc2cncc(Cl)c2)on1)c1ccncc1 (stereo not drawn)	active: 65.1%
NC(=O)N/N=C\c1cc(Br)ccc1O	inconclusive: -5.8%
CC(/C=N/NC(=O)c1cc(-c2ccncc2)nc2ccccc12)=C\c1ccco1	inconclusive: -35.6%
CCCCCOc1ccc(Br)cc1/C(C)=N/NC1=NCCN1	inconclusive: -384%
O=C(C=C=Nc1ccccc1)C(=O)N=C=Cc1ccccc1	inactive: 0.1%
COc1ccc(-c2csc(NC(=O)CSc3nnc(Nc4ccccc4C)s3)n2)cc1	inconclusive: 136%
CCCOc1ccccc1C(=O)N(Cc1ccc(C)o1)C1CCS(=O)(=O)C1 (stereo not drawn)	active: 64.6%
O=C(N/N=C/c1cccc2ccccc12)c1cc(C2CC2)[nH]n1	inactive: 3.8%
Nc1nc(-c2ccccc2)c(N=Nc2ccccc2Cl)s1	active: 104%
Cc1ccc(O)c(NC(=O)c2noc(C(C)C)c2[N+](=O)[O-])c1	inactive: 4.3%
CC(=O)c1ccc(N2CCN(C(=S)Nc3ccc(Cl)c(Cl)c3)CC2)cc1	inactive: -1.4%
Cn1nc(C(F)(F)F)c(-c2cccc(C(F)(F)F)c2)c1NC(=O)Nc1ccc(F)cc1	active: 69%
Cc1cc(Cl)n2c(nc3ccccc32)c1C#N	inconclusive: -257%
CCOc1ccc(C(=O)NC(C(=O)NCCc2ccc(S(N)(=O)=O)cc2)C(C)C)cc1 (stereo not drawn)	inconclusive: -276%
